Data taken from PubChem BioAssay (Tox21).
The inconclusive results got no clear call from the source; some entries with a clear call stand among them for comparison. Potencies of inconclusive entries are doubtful fits and often do not repeat. Activity calls are given as the source filed them. Calls follow the shape of the dose curve; as a rule, active = well fitted activation curve with a large enough effect in the signal ratio in the repeat runs (not every such curve was filed as active); inconclusive = weak or mixed curves; inactive = flat fitted curve, though single readings scatter; the % refers to the signal ratio.

Test: qHTS assay to identify small molecule agonists of H2AX (AID 1224845)
Details: CHO-K1 phospho-H2AX Ser139 HTRF, 3 h; activation (H2AX phosphorylation): at 154 µM (top of the series) unless noted
In short: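 Phospho-H2AX Ser139 measured by HTRF (ex 320 nm; em 665 and 620 nm) after 24 hr antibody incubation. Compounds, 15 concentrations, 0.76% DMSO, were applied to CHO-K1 cells for 3hr at 37C before lysis.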
% is scaled to controls: 0 for no effect and ±100 for the full control effect; potency is read from the fitted curve at half-maximal effect; tags tell the direction and shape of the fitted curve or compound fluorescence and quenching.

Row | SMILES | activation (H2AX phosphorylation) | Potency
1 | CCCC(=O)CC | inactive: -0.452% | –
2 | COc1ccc(-n2nc(C(F)F)cc2-c2ccc(S(C)=O)cc2)cc1 (stereo unspecified) | inactive: -1.44% | –
3 | CN(C)C(=O)Nc1ccccc1 | inactive: -3.69% | –
4 | OCCCCCCCl | inactive: -3.52% | –
5 | O=C(OCC(O)CO)c1ccccc1Nc1ccnc2cc(Cl)ccc12 (stereo unspecified) | – | inconclusive: 55.2 µM [activator, single point]
6 | NC(N)=NCCN1CCCCCCC1 | inactive: 0.429% [at 0.582 µM] | –
7 | CC[C@@H](CO)NCCN[C@@H](CC)CO | inactive: 0.632% [at 70.9 µM] | –
8 | C=C(C)C(=O)OCCOCCOC(=O)C(=C)C | inactive: -1.81% | –
9 | COC(=O)N/N=C/c1c[n+]([O-])c2ccccc2[n+]1[O-] | – | inconclusive: 61.9 µM [cytotoxic, single point]
10 | CCCCCC=CCC=CCCCCCCCC(=O)OCC | – | active: 55.2 µM
11 | CC(C)(Oc1ccc(Cl)cc1)C(=O)O | – | inactive
12 | CC(=O)N(CC(O)CO)c1c(I)c(C(=O)NCCO)c(I)c(C(=O)NCC(O)CO)c1I (stereo unspecified) | inactive: -1.87% [at 70.9 µM] | –
13 | CCc1oc2ccccc2c1C(=O)c1cc(Br)c(O)c(Br)c1 | – | inconclusive: 4.92 µM [fluorescent, full curve]
14 | O=c1[nH]c(=O)c2[nH]c(=O)[nH]c2[nH]1 | inactive: 0.259% [at 14 µM] | –
15 | CCCCCCCCCCCC(=O)[O][Sn]([CH2]CCC)([CH2]CCC)[O]C(=O)CCCCCCCCCCC | – | inconclusive: 61.9 µM [activator, single point]
16 | O=c1[nH]c(=O)n([C@H]2C[C@H](O)[C@@H](CO)O2)cc1F | – | inconclusive: 1.96 µM [falling, full curve, poor fit]
